In the supplement of paper PMC10681739 one finds RUNX1 binding intensity data, which are given here for 62 sequences.

± gives the standard deviation of the averaged measurements. Over roughly 4,000 sequences, “arbitrary fluorescence units” has its median near 830; the highest 2% begin near 6,500. The list lacks most of the strong results.
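Also: Full-length recombinant human RUNX1 bound to double-stranded DNA microarray spots, detected with an Alexa488-labelled secondary antibody after the anti-RUNX1 primary, read as scanned spot fluorescence.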

Chain of UniProt Q01196 (Q01196 whole entry): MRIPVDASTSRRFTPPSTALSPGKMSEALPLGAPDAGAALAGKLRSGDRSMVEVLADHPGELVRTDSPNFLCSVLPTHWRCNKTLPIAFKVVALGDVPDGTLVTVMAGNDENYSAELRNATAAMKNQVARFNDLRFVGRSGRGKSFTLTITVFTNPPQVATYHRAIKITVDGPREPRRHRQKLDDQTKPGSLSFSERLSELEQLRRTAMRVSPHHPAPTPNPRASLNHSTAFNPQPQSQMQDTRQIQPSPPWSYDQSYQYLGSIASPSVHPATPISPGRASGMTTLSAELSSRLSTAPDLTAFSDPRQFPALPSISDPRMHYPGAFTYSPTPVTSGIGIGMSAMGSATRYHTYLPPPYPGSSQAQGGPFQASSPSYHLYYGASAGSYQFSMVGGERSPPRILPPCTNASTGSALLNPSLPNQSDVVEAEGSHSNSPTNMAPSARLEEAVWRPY

The experiment has as its target RUNX1 (UniProt Q01196). Kind of experiment: RUNX1 binding intensity (PBM fluorescence), RUNX1 alone (arbitrary fluorescence units); higher = stronger binding. The note with it: RUNX1 concentration 2 nM; ETS1 concentration 0 nM. The protocol:
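gcPBM on 36-bp genomic-derived probes (partner site mutated) containing one RUNX1 site and no ETS1 site. Recombinant human RUNX1 (2 nM) was incubated alone or with ETS1 (25 nM) and detected by anti-RUNX1 antibody fluorescence. Values are medians over 4 replicate spots (not normalised). The probes sit in constant array flanks that are not printed.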
Sequence GCCCTGCGGCGCCTGCGCGCTAAAAAGAGGACGTTT came in with an RUNX1 binding intensity of 703.
For the sequence CCGCCCCCGTACGGTCACAGCACCCAAACCGCAGGC, the RUNX1 binding intensity amounted to 3120.
The same measure for GAAACTTAGTCTGTGGGGAGAAGGACGTATCTTTGC: 756; for TGTTTAGATGTGGGCACACCTGACATGCGCGGGCTC: 663; for TTTTTTGCGCCTGTAGGGTCACATTGTGGTTGATTG: 1030.
In turn, GCAAGATCCCGCATTAACATCTCGGGAATGGACAGC had an RUNX1 binding intensity of 731.
The same measure for TCCCCACCTCCTTTAAAACGATGAGATAACCACATG: 1440.
Sequence TGTGGAGACATGAAGCACTAACCTCAAACCTCTTTC displayed an RUNX1 binding intensity of 876.
The same measure for TTTCTTTGTGGGAGGGAGTGGGGGAGGTTGACTGAT: 1420; for TTCACGCTCCGCAAGCTCGCTCCTTTCGGGACGCAG: 738; for TATACCGTACAGGTGGTCAAAAGGACGTTCAAGTTA: 822.
To TGGAGTGGAGGCAGTGGTGTTACCACAGCTCAGAGG belongs 751; to GCTGACCCGTAAGCGCTCGTGACCACCATCTCCGAC, 894; to CCCAGAGTCCAGAATCGCTGCCTGCGGCTTGACACA, 771.
The same measure for TTCGCTCCCTGAACCGCGTCGCTTCATGAGCCGCGC: 814; for TCACAAAACCACTGGAGGTAACGTCCTCCATTTTTT: 798.
The sequence GCTTTTTGCGGCTGCGCGGGCTCCCTGGAGTCCTGC registered an RUNX1 binding intensity of 763.
Turning to AAGCAACCGCCGAGGGGAGACGCCGAAAGTCCCGCC, the RUNX1 binding intensity amounted to 812.
The same measure for CACCTCAGCTTGCTGAGTAGCTGGGACCACAGGCGT: 743; for TCAACGCCACCACAAAGAGACGCCCGGGAGAAGCCT: 1020.
To ACTTCCAGGGAGCCCCATAGTCCAGAAACCCACACA belongs 1010; to CACTGCCTGCCCTCTTCCACTTTCAAAACCACATCA, 2410.
Take CTGTCTCCGAGTAAAGTAGGGTGTGTGGGTCACATG: the RUNX1 binding intensity came out at 746.
The same measure for GCATGCGCCACAGACCATGCACTGGATTGGGCGCCT: 737; for TCTTCAGCAGCAAGACCCTGGTCTAGCCACAAGCCT: 718; for CGTGGCCGAAGCCGCGGGGACTGCGGGGGCGGAGTG: 759.
For GGCACAGGCTCACCGCGCAGGCAGGGAGCAGCGGTA, the RUNX1 binding intensity came out at 732.
Sequence GCCGTCCCCACCGCTCGCAGCCACCAGGCAACCCCG returned an RUNX1 binding intensity of 991.
To CTTGTGCAGCTGCGGTTCTCAGCAGCCGCGGGCGGA belongs 1180; to GGAGCCGCAGCCGAGCTCCGTGTCCACTCCCGGGTT, 870.
To CAAGGGAACGTCCTTAAACAGCTTGTGGTATTGCTG belongs 842.
To GGGCCCCCTGAAAGAGCTTTGACCGCTCGAGCCTGC belongs 740; to AGGAGAGGTTGTTGCTTGAAGGTGTGGTCTCCTCCA, 661.
As for CCATTGGCGGGCGGTTTGAATGACGGAGGTGACGGC, the RUNX1 binding intensity amounted to 772.
CTCTTCCAGCAAGCCTTCCCTGACCACTGCTTGCTC displayed an RUNX1 binding intensity of 1060.
To GGAGGCCGTAAATGCTGAGTGTGCGGGGCCGAACGT belongs 710; to AGCTGGGGGCGGTTGTGGAGGGAGGTCCCTTGGCAT, 764; to AAACTGGCCACAGAGCAGTCTCCGTAAGCTGCCTCT, 896.
As for CACTGATTAAGAGCAAGTGTGTGTGGTTATTACCGT, the RUNX1 binding intensity is 748.
The sequence CCCGGCTGTGGGCCCAGGAACTACATTGCCTAGAAG yielded an RUNX1 binding intensity of 839.
The same measure for TCTGAGAATGCAGCATATGTGTGTGGTCTCTAGTCA: 755; for CCCCCTGCGGCCAGGAGCAGTCCGAAAGTCGCAGCC: 861.1 ± 7; for TGAAGCAGGCCGAAGTGCTGTGGTTTCTGGCGACTG: 959.
For AGCCTCCCGTACGCCGTCGCCCCCACACACGCCCGC, the RUNX1 binding intensity came out at 896.
To CCTTGGGCTTTGTGGTCTCCCACATACGGCCTGCCC belongs 1130; to ACCGCCGGGAGTTTCTGCCGCGGCTTTGCGGGGACG, 791; to TGCAGCGCAGCCTGGGACGTGCGGGCGGTGCATGAG, 664.
To CACGTGTGCGGGAGGGAAGCAGCAAGTGACAGCGGG belongs 744; to TCCTCCCACGGGAATTGCCGTAGGACCGCAGCCCGA, 925.
For TCCTCCACCGCAGAAAGGCAACTGGATCCTACCCGG, the RUNX1 binding intensity amounted to 2280.
To CCTGTCCGGGAGTCCTGAGAGGGAATCGCCCGCAAA belongs 821; to CCAGATTAGGTAACCCACCCGGCCCACAAAAAGCGG, 903.
To GGGATCTACTGCCTCTCTCGGCCGCGGCCGCAGCAC belongs 849; to GCTCGCGTCATCATGCAGCGCCGACACCACAGACAC, 822.
For the sequence AACTTGTGGGGTTTTCTTCTGATCTTGCTCCCCGCT, the RUNX1 binding intensity was determined as 998.
To ACTGTGTGTGGTGTTCCACAGAGGACACTGCAAAGC belongs 759.
The same measure for CGAATGTAACCACCTCTCGGCCCGGCCGTAAGAAGC: 806; for TGCGAGAGGAACAAGCTGGCTGCGGCCAAGTGCAGG: 621.
To GCCAGGAGGACTTTCGGGTGGGTGTGGTATCTGCGA belongs 717; to AAAACGCGCAAATACGGTGGCTGCGGCCCGCGGGCA, 693.
The sequence TCAGAAAACCCAGAAACCCTAATTGTCCCCACAGAA showed an RUNX1 binding intensity of 884.
The same measure for ACTGATGCGGTCACAGACAGCAAAGGCAGCAAACAG: 1650.
